Assay results published in patent US8840891 (RSR, dated 2014).

Tests used:
[1] = biological target: TSHR coated onto tubes (TSHR coated tubes) (human) (UniProt P16473); test: TSHR coated tubes; parameters: reference of the scale not given here
[2] = biological target: TSHR coated onto tubes (TSHR coated tubes) (human) (UniProt P16473); test: TSHR coated tubes; parameters: reference of the scale not given here; remark: listed apart in the source

“M22 IgG (human monoclonal thyroid stimulating autoantibody, hMAb TSHR1)” gave a % inhibition of 125I-5C9 IgG binding ([1]; Assay calibrator 1 U/L) of 4.3%, a % inhibition of 125I-TSH binding ([1]; Assay calibrator 1 U/L) of 15% and a % inhibition of 125I-5C9 IgG binding ([1]; Assay calibrator 2 U/L) of 15%. It also gave a % inhibition of 125I-TSH binding ([1]; Assay calibrator 2 U/L) of 27%, a % inhibition of 125I-5C9 IgG binding ([1]; Assay calibrator 8 U/L) of 62% and a % inhibition of 125I-TSH binding ([1]; Assay calibrator 8 U/L) of 67%. For the same substance, the % inhibition of 125I-5C9 IgG binding ([1]; Assay calibrator 40 U/L) was 87%, the % inhibition of 125I-TSH binding ([1]; Assay calibrator 40 U/L) was 90% and the % inhibition of 125I-M22 IgG binding ([2]; Assay calibrator 1 U/L) was 21.8%. For the same substance, the % inhibition of 125I-5C9 IgG binding ([2]; Assay calibrator 2 U/L) was 21.3%, the % inhibition of 125I-M22 IgG binding ([2]; Assay calibrator 2 U/L) was 27.9% and the % inhibition of 125I-M22 IgG binding ([2]; Assay calibrator 8 U/L) was 63.3%. The % inhibition of 125I-5C9 IgG binding ([2]; Assay calibrator 40 U/L) was 87.2% and the % inhibition of 125I-M22 IgG binding ([2]; Assay calibrator 40 U/L) was 82.2%.

Entries with a single value are a further part of the results.
